# From PubChem BioAssay AID1347165 (National Center for Advancing Translational Sciences (NCATS), 2019)
# The campaign covered roughly 220,000 compounds. About 5,700 (2.6%) were called active. Inconclusive results, whose numbers are uncertain, are shown with a selection of clear calls. Calls follow the shape of the dose curve; as a rule, active = well fitted inhibition curve with a large enough effect; inconclusive = small, poorly fitted or top-dose-only effect; inactive = no such curve, though single readings can be large or run the other way. Potencies beside an inconclusive call are fits to weak or partial responses and may not hold up.
# Biological target: Lysine-specific demethylase 5B (Homo sapiens) (UniProt Q9UGL1)
# Sequence of UniProt Q9UGL1 (Q9UGL1 whole entry, looked up): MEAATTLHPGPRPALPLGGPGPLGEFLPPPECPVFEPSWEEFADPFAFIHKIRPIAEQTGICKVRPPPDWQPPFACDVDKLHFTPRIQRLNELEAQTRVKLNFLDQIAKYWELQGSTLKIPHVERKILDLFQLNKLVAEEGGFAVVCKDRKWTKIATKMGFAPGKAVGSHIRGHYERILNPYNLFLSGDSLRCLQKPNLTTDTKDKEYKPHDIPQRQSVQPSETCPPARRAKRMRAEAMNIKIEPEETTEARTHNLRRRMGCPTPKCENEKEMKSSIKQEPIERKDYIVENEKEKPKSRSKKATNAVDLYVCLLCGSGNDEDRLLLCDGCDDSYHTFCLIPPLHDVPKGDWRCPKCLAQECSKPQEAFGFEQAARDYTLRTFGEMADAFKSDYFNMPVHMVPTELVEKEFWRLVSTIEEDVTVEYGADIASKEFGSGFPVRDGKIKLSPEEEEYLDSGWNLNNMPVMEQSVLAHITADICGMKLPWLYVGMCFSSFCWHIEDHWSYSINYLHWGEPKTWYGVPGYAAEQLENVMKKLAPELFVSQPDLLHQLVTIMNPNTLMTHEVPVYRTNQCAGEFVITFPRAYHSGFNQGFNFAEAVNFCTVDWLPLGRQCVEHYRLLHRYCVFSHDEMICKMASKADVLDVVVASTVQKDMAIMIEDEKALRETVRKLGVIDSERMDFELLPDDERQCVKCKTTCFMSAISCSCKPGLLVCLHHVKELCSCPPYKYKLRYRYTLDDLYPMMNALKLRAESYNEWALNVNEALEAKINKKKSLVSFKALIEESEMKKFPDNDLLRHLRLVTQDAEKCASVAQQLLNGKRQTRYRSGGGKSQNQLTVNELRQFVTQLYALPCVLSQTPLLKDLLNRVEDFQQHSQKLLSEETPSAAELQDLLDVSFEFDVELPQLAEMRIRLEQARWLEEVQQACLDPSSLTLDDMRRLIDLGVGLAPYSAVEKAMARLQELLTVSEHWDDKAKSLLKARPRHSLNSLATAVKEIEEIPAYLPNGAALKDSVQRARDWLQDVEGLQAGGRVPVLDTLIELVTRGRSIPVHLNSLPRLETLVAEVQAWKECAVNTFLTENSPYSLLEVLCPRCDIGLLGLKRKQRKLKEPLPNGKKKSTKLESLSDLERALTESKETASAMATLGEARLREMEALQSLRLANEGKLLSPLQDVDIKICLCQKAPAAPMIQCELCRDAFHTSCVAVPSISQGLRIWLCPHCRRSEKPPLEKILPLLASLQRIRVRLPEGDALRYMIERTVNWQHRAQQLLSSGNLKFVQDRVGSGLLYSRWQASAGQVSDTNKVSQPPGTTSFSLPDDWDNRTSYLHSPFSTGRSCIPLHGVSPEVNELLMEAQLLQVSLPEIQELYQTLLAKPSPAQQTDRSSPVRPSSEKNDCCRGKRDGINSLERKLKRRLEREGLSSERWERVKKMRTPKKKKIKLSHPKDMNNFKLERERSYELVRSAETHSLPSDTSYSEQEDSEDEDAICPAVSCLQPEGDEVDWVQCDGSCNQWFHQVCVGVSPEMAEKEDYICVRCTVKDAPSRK
# Test: Primary screen for KDM5B Histone Demethylases FDH-coupled qHTS; also: nearly all actives have a fitted effect of over 70% in size; as to activity change, negative = inhibition: 0% is about no effect
# Settings: FDH-coupled NADH fluorescence (FDH is formaldehyde dehydrogenase); activity change, negative = inhibition: at 57.7 µM (top of the series) unless noted
# From the text: Assay Submitter (PI): Qin Yan, Ph.D. (Yale University) and Xiaodong Cheng, Ph.D. (MD Anderson) This project was funded as part of the NCI NEXT Program and Chemical Biology Consortium (CBC) The histone demethylases, KDM5A and KDM5B catalyze the demethylation of lysine 4 on histone H3 (H3K4me3/2). They are overexpressed in a variety of cancers and have been implicated in cancer cell growth, metastasis, drug resistance, and tumor growth. KDM5A is amplified and overexpressed in breast and gastric cancer; and is translocated in leukemia. While KDM5B is highly expressed in human mammary tumors and breast cancer cell lines, but not in normal adult breast tissue. Moreover, knockdown of KDM5B leads to upregulation of tumor suppressor genes, including BRCA1. The goal of this project is to employ qHTS to identify selective small molecule inhibitors of KDM5A/B demethylase activity to better understand the role of KDM5 in cancer and to develop novel therapies. We employed an FDH-coupled assay previously reported by Sakurai et al. to monitor in vitro KDM5 demethylase activity. Compounds showing dose response inhibition are re-acquired, validated, and tested for non-specific interference with the formaldehyde dehydrogenase (FDH) counterscreen. True inhibitors are validated using an AlphaLisa secondary screen, which employs an H3K4(me2-1)-specific antibody to monitor demethylation of a biotin-tagged H3K4(me3) peptide substrate. Inhibitors are profiled against KDM4A and KDM6A AlphaLisa counterscreens to determine level of demethylase specificity; and against the TruHits counterscreen to eliminate non-specific inhibitory activity on the AlphaLISA detection method. Selective inhibitors identified from the primary and secondary screening are tested in cells using immunofluorescence to monitor global H3K4 tri-methylation as a measure of KDM5A/B inhibition. Early Translation Branch (ETB) National Center for Advancing Translational Sciences (NCATS), Rockville, MD National Institute of Health (NIH), Bethesda, Maryland [1] Sakurai, M et al. A miniaturized screen for inhibitors of Jumonji histone demethylases. Mol Biosyst. 2010 Feb;6(2):357-64. doi: 10.1039/b912993f. Epub 2009 Oct 8.
# Materials: 1536-well Black, solid bottom, medium binding assay plate is purchased from Greiner Bio-one. The enzymes (KDM5B) and substrate (H3K4me3/2) are provided by the principal investigators. The buffer for this assay is composed of 50mM HEPES at pH 7.5 with 0.01% Tween-20. FDH coupled Demethylase qHTS protocol: Three microliter enzyme mix (buffer + 200nM KDM5BDeltaAP final concentration) is dispensed into the assay plate using the BioRAPTR Flying Reagent Dispenser (FRD; […]). Compound (at various final concentration) and control solution is pin transferred to the assay plate using the Kalypsys 1536-pin tool apparatus. The assay plate is incubated for 10 min at room temperature followed by addition of 1uL substrate mix (buffer + 100uM ascorbic acid, 50uM ferrous ammonium sulfate, 12.5uM H3K4Me3, 25uM a-ketoglutarate, 0.25 mM NAD+, 0.25 U/mL formaldehyde dehydrogenase using the FRD yielding a total reaction volume of 4 uL. Initial fluorescence (Read1) is detected using the PerkinElmer ViewLux plate reader equipped with 340 nm excitation and 450 nm emission filters. The final fluorescence (Read2) signal is obtained after 30 min of room temperature incubation. Delta RFU is calculated (Read2 - Read1) and is used to generated dose response curves.
# Potency is read from the fitted curve at half-maximal effect; tags tell the direction and shape of the fitted curve.
SMILES,Potency,"activity change, negative = inhibition"
COc1ccc(CNC(=O)CCCN2C(=O)CCn3nc(-c4cn(C)c5ccccc45)cc32)cc1,"inconclusive: 5.01 µM [inhibitor, partial curve, poor fit]",–
Cc1ccc(/C=C/C(=O)c2ccc(C#N)cc2)s1,inactive,–
CN(C)CCNC(=S)NCc1cccs1,inactive,–
CCOP(=O)(OCC)c1nc(-c2cccs2)oc1NCc1ccccc1,inactive,–
Cc1oc2cc(OS(C)(=O)=O)ccc2c(=O)c1-c1ccc(Br)cc1,inactive,–
O=C(CSc1ccccn1)NCc1cccnc1N1CCOCC1,"inconclusive: 6.31 µM [inhibitor, partial curve, poor fit]",–
CCCn1nc(C)cc1-c1nn2c(-c3cccc(F)c3)nnc2s1,inactive,–
CC(C)CC(=O)N1CCCN(Cc2ccc3c(c2)OCO3)c2ccccc21,"inconclusive: 25.1 µM [inhibitor, partial curve]",–
COc1ccccc1CN1CCNc2cnc(Nc3ccccc3)cc2C1,"inconclusive: 35.5 µM [inhibitor, partial curve, poor fit]",–
COCC(C)N(C)C(=O)c1ccc2c(c1)NC(=O)CS2 (stereo not drawn),inactive,–
CCN(CC)C(=O)c1ccc(-c2cccs2)s1,"inconclusive: 25.1 µM [inhibitor, single point]",–
Cc1cc(C)cc(OCC(=O)N(Cc2ccc(Cl)cc2)C2CCS(=O)(=O)C2)c1 (stereo not drawn),–,inconclusive: -36.4% [inhibitor]
CSc1nc2n(n1)C(c1ccc(O)cc1)C1=C(CC(C)(C)CC1=O)N2 (stereo not drawn),"inconclusive: 25.1 µM [inhibitor, partial curve, poor fit]",–
Cc1nc(-c2ccc(F)cc2)sc1CCNC(=O)c1ccc(OC(C)C)cc1,"inconclusive: 35.5 µM [inhibitor, partial curve, poor fit]",–
CN(Cc1ccc(F)cc1)Cc1ccc(OC(F)(F)F)cc1,inactive,–
CCOc1cc(/C=C/c2ncc(C(=O)O)s2)cc(Br)c1OC,"inconclusive: 12.6 µM [inhibitor, partial curve, poor fit]",–
CCOc1ccc(-c2cn3c(n2)sc2cc(C(=O)N4CCCC(C)C4)ccc23)cc1 (stereo not drawn),"inconclusive: 50.1 µM [inhibitor, single point]",–
COc1ccc(F)cc1S(=O)(=O)N1CCC(n2cnnc2C)CC1,inactive,–
Cc1ccsc1C(=O)OCC(=O)N1c2ccccc2NC(=O)C1(C)C,inactive,–
CC1CCCN(C(=O)C2CCN(C(=O)c3cc4ccccc4n3C)CC2)C1 (stereo not drawn),inactive,–
O=C(c1ccccn1)N1CCC(c2cc(-c3ccc(F)cc3)n[nH]2)CC1,"inconclusive: 4.47 µM [inhibitor, partial curve, poor fit]",–
COc1ccc(/C=C/C(=O)OCC(=O)Nc2ccc(N3CCOCC3)cc2)cc1OC,"inconclusive: 35.5 µM [inhibitor, partial curve, poor fit]",–
CCCC(C(=O)NC(C)(C)CC)N(CC1CCCO1)C(=O)CNS(=O)(=O)c1ccc(F)cc1 (stereo not drawn),inactive,–
CCc1nc(NCC2CCCO2)c(C#N)c2c1CCCC2 (stereo not drawn),"inconclusive: 25.1 µM [inhibitor, partial curve, poor fit]",–

SMILES,Potency,"activity change, negative = inhibition"
Cc1ccc2oc(C(=O)Nc3cccc(C(F)(F)F)c3)cc(=O)c2c1,inactive,–
O=C(c1ccco1)N1CCC(N2CCCC(C(=O)N3CCCC3)C2)CC1 (stereo not drawn),inactive,–
CC(O)c1cccc(Oc2ncnc3sc(-c4ccccc4)cc23)c1 (stereo not drawn),"inconclusive: 39.8 µM [inhibitor, single point]",–
CC1CCc2nn3ccn(CC(=O)Nc4ccccc4)c(=O)c3c2C1 (stereo not drawn),"inconclusive: 35.5 µM [inhibitor, single point]",–
C(#Cc1ccccc1)CNC12CC3CC(CC(C3)C1)C2,inactive,–
CC(C)OC(=O)N1CCC(COc2ccc3c(cnn3CCC(=O)O)c2)CC1,inactive,–
COc1ccc(-c2nc(C3CC3)nc3c2CCN(CCC(C)C)CC3)cc1,active: 79.4 µM,–
COc1ccc2[nH]c3c(c2c1)CCNC31CCN(C(=O)c2cnccc2C)CC1,"inconclusive: 11.2 µM [inhibitor, partial curve]",–
COc1ccc2c(c1)CCC/C2=N\OC(=O)c1cc(SC)ccc1Cl,inactive,–
CC(C)N1CCc2c(sc(NC(=O)c3ccc(S(=O)(=O)N(C)C4CCCCC4)cc3)c2C(N)=O)C1,"inconclusive: 17.8 µM [inhibitor, partial curve, poor fit]",–
Cc1c(C(=O)O)oc2ccc(S(=O)(=O)Nc3ccccc3)cc12,inactive,–
CS(=O)(=O)N1CCCC(C(=O)NCCCN2CCCc3ccccc32)CCNC(=O)CC1 (stereo not drawn),active: 31.6 µM,–
Cc1ccc(NC(=O)Cn2c(=O)c3c(ncn3Cc3ccccc3)n(Cc3ccccc3)c2=O)cc1F,inactive,–
COc1ncccc1-c1cc2c(ccn2CC2CCN(C)CC2)c(N2CCOCC2)n1,active: 25.1 µM,–
CCCCCN1CCN(c2nc3c(c(=O)[nH]c(=O)n3C)n2Cc2ccc(Br)cc2)CC1,inactive,–
Cc1ccc(C)c(-n2ncc3c(NNC(=O)C4CCCCC4)ncnc32)c1,inactive,–
COCCCNC(=O)c1cc(C)nc2ccc(C)cc12,"inconclusive: 35.5 µM [inhibitor, partial curve, poor fit]",–
O=C(Cc1cccs1)N/N=C\c1cccc2ccccc12,"inconclusive: 12.6 µM [inhibitor, partial curve, poor fit]",–
CC1CCN(c2csc3ccc(F)cc3c2=O)CC1,"inconclusive: 25.1 µM [inhibitor, partial curve, poor fit]",–
CC(=O)c1ccc(N2CCN(C(=O)CCNC(=O)Cn3ccc4ccccc4c3=O)CC2)cc1,inactive,–
COCCCn1cnnc1SCC(=O)c1c[nH]c2ccccc12,inactive,–
CC(C)C1Cc2c(sc(N)c2C#N)CO1 (stereo not drawn),"inconclusive: 31.6 µM [inhibitor, partial curve, poor fit]",–
CN(CCCNC(=O)Cn1ncc2c([nH]c3ccccc32)c1=O)Cc1ccccc1,"inconclusive: 31.6 µM [inhibitor, single point]",–
COc1ccc(OC)c(C2CC(=O)N(c3sc4c(c3C#N)CCCCC4)C3=C2C(=O)CCC3)c1 (stereo not drawn),inactive,–
